Test results taken from PMC4336329 (PLoS ONE, 2015).
Hit rate of the full screen: of about 310,000 compounds, about 2,200 (0.71%) showed an effect of 50% or more. Effects have a minus sign here. The list shows a part of the results.

biological target: human ether-à-go-go-related gene (hERG) potassium channel (human, UniProt Q12809); test: primary screen, population patch clamp on CHO cells stably expressing hERG
Sequence (Q12809 whole entry, looked up): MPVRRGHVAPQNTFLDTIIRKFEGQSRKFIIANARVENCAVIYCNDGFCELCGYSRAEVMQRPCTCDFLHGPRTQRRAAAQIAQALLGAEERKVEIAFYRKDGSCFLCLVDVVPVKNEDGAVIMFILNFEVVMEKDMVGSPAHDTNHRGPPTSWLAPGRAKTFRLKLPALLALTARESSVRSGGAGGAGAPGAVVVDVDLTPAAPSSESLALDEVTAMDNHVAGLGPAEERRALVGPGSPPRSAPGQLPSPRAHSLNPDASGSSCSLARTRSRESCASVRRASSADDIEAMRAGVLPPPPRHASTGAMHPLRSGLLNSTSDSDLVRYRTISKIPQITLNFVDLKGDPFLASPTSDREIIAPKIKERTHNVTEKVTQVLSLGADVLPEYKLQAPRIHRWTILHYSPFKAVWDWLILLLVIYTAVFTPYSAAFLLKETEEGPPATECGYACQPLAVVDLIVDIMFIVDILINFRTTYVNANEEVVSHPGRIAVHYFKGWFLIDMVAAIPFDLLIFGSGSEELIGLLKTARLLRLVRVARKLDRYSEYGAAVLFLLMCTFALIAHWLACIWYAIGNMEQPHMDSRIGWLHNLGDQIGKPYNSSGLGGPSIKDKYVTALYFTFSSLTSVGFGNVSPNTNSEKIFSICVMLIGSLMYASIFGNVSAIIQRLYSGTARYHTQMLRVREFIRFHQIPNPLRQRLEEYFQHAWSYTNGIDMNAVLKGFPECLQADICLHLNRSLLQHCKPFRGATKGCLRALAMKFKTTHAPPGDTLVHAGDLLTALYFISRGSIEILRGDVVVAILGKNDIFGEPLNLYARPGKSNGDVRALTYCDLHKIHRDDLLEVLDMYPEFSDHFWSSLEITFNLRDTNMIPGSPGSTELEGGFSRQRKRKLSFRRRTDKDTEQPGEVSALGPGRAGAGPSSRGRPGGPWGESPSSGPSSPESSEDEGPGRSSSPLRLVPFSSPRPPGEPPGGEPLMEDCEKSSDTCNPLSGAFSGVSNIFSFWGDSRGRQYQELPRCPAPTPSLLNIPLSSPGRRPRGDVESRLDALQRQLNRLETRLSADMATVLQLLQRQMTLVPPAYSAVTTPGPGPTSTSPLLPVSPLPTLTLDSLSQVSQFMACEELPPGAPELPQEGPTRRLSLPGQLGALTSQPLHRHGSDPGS

| SMILES | hERG current change (%, negative = inhibition) at 1uM |
| --- | --- |
| COc1ccc(OCCSc2nnc(-c3cccnc3)n2N)cc1 | 8.95% |
| CCOc1ccc(S(=O)(=O)N2CCCC(C(=O)NC3CC3)C2)cc1Cl (centres unmarked) | 8.25% |
| COC(OC)c1ccnc(-c2ccc(OC(C)=O)cc2)n1 | 29.3% |
| O=C(Oc1ccccc1N1C(=O)CCC1=O)c1ccco1 | 7.02% |
| COc1ccc2c(c1)c1nnc(SC)nc1n2C | 8.09% |
| CCCn1nnc(NC(=O)c2cc3ccccc3o2)n1 | 17.5% |
| O=c1c(Cc2c(F)cccc2Cl)c(O)ccn1CC1CCCO1 (centres unmarked) | 8.23% |
| CN=C1SC(CC(=O)Nc2cc(Cl)ccc2Cl)C(=O)N1C (centres unmarked) | 10.5% |
| COc1ccc2sc(-c3ccc(N(C)C)cc3)c(C#CCO)c2c1 | 13.8% |
| COc1cc(/C=N/NC(=O)c2cccc(NC(=O)c3ccccc3Cl)c2)ccc1O | 10.1% |
| CCOC(=O)C1(CCOc2ccccc2)CCN(Cc2cccn2-c2ncccn2)CC1 | -81.6% |
| Cc1ccc(NC(=O)CSc2nc3[nH]ncc3c(=O)[nH]2)cc1 | 5.39% |
| COc1ccc2nc(NC3=NC(C(=O)Nc4ccc(C)cc4)CC(=O)N3)nc(C)c2c1 (centres unmarked) | 8.26% |
| CC1(C)Cc2c(sc3c2c2ncnn2c2nnc(SCC(=O)NCc4ccco4)n32)CO1 | 4.47% |
| CC(C)(C)c1ccc(C(=S)N2CCN(c3ccccc3)CC2)cc1 | 12.6% |
| C=CCN=c1scc(-c2ccco2)n1/N=C/c1ccc(O)c(O)c1O | 10.7% |
| O=C([O-])c1cc(-c2cccnc2)nc2ccccc12.[K+] | 7.92% |
| O=c1c2c3c(sc2nc(NCCO)n1Cc1ccco1)CCCCC3 | 17.2% |
| COCc1c(C(=O)N/N=C/c2ccncc2)nnn1-c1nonc1N | 8.1% |

| SMILES | hERG current change (%, negative = inhibition) at 1uM |
| --- | --- |
| CSCCC(NS(=O)(=O)c1ccc2c(c1)Cc1cc(S(=O)(=O)NC(CCSC)C(=O)O)ccc1-2)C(=O)O (centres unmarked) | 21.8% |
| Cc1cccc(-n2cc(-c3ccccc3)c3c(N4CCOCC4)ncnc32)c1 | 11% |
| CCC(=O)Nc1cccc(C(=O)/C=C/c2ccc(F)cc2)c1 | -26% |
| CCOc1ccc2nnnn2n1 | 10.4% |
| COC(=O)C1=C(c2cccc(C#N)c2)C[C@@H]2CC[C@H]1N2C(=O)NCCOc1ccccc1 | 12.1% |
| O=C(Nc1ccc(C(=O)O)cc1)/C(=C\C=C\c1ccccc1)NC(=O)c1cccc(Br)c1 | 6.3% |
| CC(=O)Nc1ccc(S(=O)(=O)NNC(=O)c2cccc3ccccc23)cc1 | 17.2% |
| O=C(C1COc2ccccc2O1)N1CCN(S(=O)(=O)c2ccccc2)CC1 (centres unmarked) | -2.39% |
| C/C(=N\Nc1nc2ccccc2[nH]1)c1cccs1 | -0.576% |
| CN(C)CCn1c2c(c(SCC(=O)Nc3nccs3)nc1=O)CCCC2 | 1.98% |
| COc1ccccc1NC(=O)C(CC=C(Cl)Cl)C(C)=O (centres unmarked) | 17.7% |
| O=C(CSc1nnc(NC2CCCCC2)s1)N1CCOCC1 | 4.47% |
| O=C(Nc1ccccc1)/C(=C/c1ccc2c(c1)OCO2)NC(=O)c1ccco1 | 11.2% |
| CS(=O)(=O)c1ccc(Cl)c(NC(=O)COC(=O)/C=C/c2cnc3ccccc3n2)c1 | 14.6% |
| Cc1ccc(CNc2nc(-c3cccs3)nc3ccccc23)cc1 | 9.39% |
| O=S(=O)(NCC(c1cccnc1)N1CCc2ccccc2C1)c1ccccc1 (centres unmarked) | 10.3% |
| COc1ccc(-c2nn(C)c3sc(C(=O)N4CCOCC4)cc23)cc1OC | -5.83% |
| COc1ccc(Cl)cc1NC(=O)C1CCN(C(=O)Nc2ccccc2)CC1 | 11.2% |
| C=CCn1c(SCC(=O)N2c3ccccc3Sc3ccccc32)nnc1-c1ccco1 | 13.3% |

| SMILES | hERG current change (%, negative = inhibition) at 1uM |
| --- | --- |
| COc1ccc(-c2cc(-c3ccccc3)c(C#N)c(S(C)=O)n2)cc1 (centres unmarked) | 11.6% |
| Cc1cc(OC(C)C(=O)NC(Cc2c[nH]c3ccc(O)cc23)C(=O)O)c2c(C)c(C)c(=O)oc2c1 (centres unmarked) | -9.01% |
| O=C(c1cc(Cl)ccc1OCc1ccccc1)N1CCOCC1 | 13.6% |
| O=C(NCCO)/C(=C\c1ccc([N+](=O)[O-])o1)NC(=O)c1ccccc1 | 4.89% |
| CN1CCN(CC#CCC2(O)c3ccccc3-c3ccccc32)CC1 | 16.1% |
| Cc1ccc(CNS(=O)(=O)c2cn(C)cn2)cc1 | -12.6% |
| Cc1cc(C(F)F)n2nc(C(=O)Nc3ccccc3F)nc2n1 | 14.7% |
| CCOC(=O)c1cc(C(=O)OCC)cc(-n2c(C)cc(C(=O)CN3CCOCC3)c2C)c1 | -7.96% |
| C=CCN1C(=O)C2(OCCCO2)c2cc(C)ccc21 | 11.5% |
| CCCCCn1c(N)c(-c2nc3ccccc3o2)c2c([N+](=O)[O-])nn(C)c(=O)c21 | 10% |
| Cc1[nH]c2ccccc2c1C(=O)COC(=O)CCS(=O)(=O)c1ccccc1Cl | 3.04% |
| O=C(NNC(=S)Nc1ccc(Cl)c(Cl)c1)c1ccccn1 | 12.1% |
| CCC(=O)c1cn(CC(=O)Nc2ccc(OC)cc2)c2ccccc12 | 7.4% |
| C=CCNS(=O)(=O)c1cc2c3c(c1)CCN3C(=O)CC2 | 22.7% |
| COC(=O)c1cn(NC(=O)C2CCC(C)CC2)c(=O)c2ccccc12 (centres unmarked) | 12.5% |
| Cc1ccc(N2CCN(C(=O)CNS(=O)(=O)c3ccc(Br)s3)CC2C)cc1 (centres unmarked) | -11% |
| CN1c2ccccc2N(C)C1c1ccc2c(c1)OCO2 | 20.3% |
| O=C(O)CC1(CC(=O)NCc2ccc(C(F)(F)F)cc2)CCCCC1 | 0.881% |
